# Assay results reported in the supplement of paper PMC8728848.
# This is one part of the list.
# B1: VLRB.aGPA.23-GCN4-biotin (Petromyzon marinus) (protein)
# chain: ACPSQCSCSGTEVNCAGKSLASVPAGIPTTTRVLYLNSNQITKLEPGVFDRLANLRELHLWGNQLVSLPPGVFDNLANLEKLWLNSNQLTSLPAGLFDRLVNLEHLGLCCMKLTELPSGAFDKLTRLKQLGLDQNQLKSIPDGAFARLPSLTHVWLHTNPWDCQCTDILYLSGWVAQHSSIVGEGWPWRHSPDSAKCSGTNTPVRAVTEASTSPSKCP
# Columns and labels:
# Test in all cases: glycan array binding signal (z-score within array); higher = stronger binding
# Settings in all cases: glycan notation: IUPAC condensed, linker removed
# [1] = target: Neu5Ac(a2-6)Gal(b1-4)GlcNAc(b1-2)Man(a1-3)[GlcNAc(b1-4)][Neu5Ac(a2-6)Gal(b1-4)GlcNAc(b1-2)Man(a1-6)]Man(b1-4)GlcNAc(b1-4)GlcNAc
# Method in brief: (§1)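 Arrays were curated from the Consortium for Functional Glycomics database, 3228 in total, and kept only where the protein sequence was available. Binding is expressed as a within-array Z-score. This score was averaged across arrays of the same protein sequence at different concentrations or buffers and across linkers, and negative values can be read as non-binding.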
# [2] = target: Neu5Ac(a2-6)Gal(b1-4)GlcNAc(b1-2)Man(a1-3)[Man(a1-6)]Man(b1-4)GlcNAc(b1-4)GlcNAc
# Method in brief: as §1
# [3] = target: Neu5Ac(a2-6)Gal(b1-4)GlcNAc(b1-2)Man(a1-3)[Neu5Ac(a2-3)Gal(b1-4)GlcNAc(b1-2)Man(a1-6)]Man(b1-4)GlcNAc(b1-4)GlcNAc
# Method in brief: as §1
# [4] = target: Neu5Ac(a2-6)Gal(b1-4)GlcNAc(b1-2)Man(a1-3)[Neu5Ac(a2-6)Gal(b1-4)GlcNAc(b1-2)Man(a1-6)]Man(b1-4)GlcNAc(b1-4)GlcNAc
# Method in brief: as §1
# [5] = target: Neu5Ac(a2-6)Gal(b1-4)GlcNAc(b1-2)Man(a1-3)[Neu5Ac(a2-6)Gal(b1-4)GlcNAc(b1-2)Man(a1-6)]Man(b1-4)GlcNAc(b1-4)[Fuc(a1-6)]GlcNAc
# Method in brief: as §1
# [6] = target: Neu5Ac(a2-6)Gal(b1-4)GlcNAc(b1-2)Man(a1-6)Man(b1-4)GlcNAc(b1-4)GlcNAc
# Method in brief: as §1
# [7] = target: Neu5Ac(a2-6)Gal(b1-4)GlcNAc(b1-2)Man(a1-6)[Gal(b1-4)GlcNAc(b1-2)Man(a1-3)]Man(b1-4)GlcNAc(b1-4)GlcNAc
# Method in brief: as §1
# [8] = target: Neu5Ac(a2-6)Gal(b1-4)GlcNAc(b1-2)Man(a1-6)[GlcNAc(b1-2)Man(a1-3)]Man(b1-4)GlcNAc(b1-4)GlcNAc
# Method in brief: as §1
# [9] = target: Neu5Ac(a2-6)Gal(b1-4)GlcNAc(b1-2)Man(a1-6)[Man(a1-3)]Man(b1-4)GlcNAc(b1-4)GlcNAc
# Method in brief: as §1
# [10] = target: Neu5Ac(a2-6)Gal(b1-4)GlcNAc(b1-2)[Neu5Ac(a2-6)Gal(b1-4)GlcNAc(b1-4)]Man(a1-3)[GlcNAc(b1-4)][Neu5Ac(a2-6)Gal(b1-4)GlcNAc(b1-2)[Neu5Ac(a2-6)Gal(b1-4)GlcNAc(b1-6)]Man(a1-6)]Man(b1-4)GlcNAc(b1-4)GlcNAc
# Method in brief: as §1
# [11] = target: Neu5Ac(a2-6)Gal(b1-4)GlcNAc(b1-2)[Neu5Ac(a2-6)Gal(b1-4)GlcNAc(b1-4)]Man(a1-3)[GlcNAc(b1-4)][Neu5Ac(a2-6)Gal(b1-4)GlcNAc(b1-4)Man(a1-6)]Man(b1-4)GlcNAc(b1-4)GlcNAc
# Method in brief: as §1
# [12] = target: Neu5Ac(a2-6)Gal(b1-4)GlcNAc(b1-2)[Neu5Ac(a2-6)Gal(b1-4)GlcNAc(b1-6)]Man(a1-6)[Neu5Ac(a2-6)Gal(b1-4)GlcNAc(b1-2)Man(a1-3)][GlcNAc(b1-4)]Man(b1-4)GlcNAc(b1-4)GlcNAc
# Method in brief: as §1
# [13] = target: Neu5Ac(a2-6)Gal(b1-4)GlcNAc(b1-3)Gal(b1-3)GlcNAc
# Method in brief: as §1
# [14] = target: Neu5Ac(a2-6)Gal(b1-4)GlcNAc(b1-3)Gal(b1-4)GlcNAc
# Method in brief: as §1
# [15] = target: Neu5Ac(a2-6)Gal(b1-4)GlcNAc(b1-3)Gal(b1-4)GlcNAc(b1-2)Man(a1-3)[Neu5Ac(a2-6)Gal(b1-4)GlcNAc(b1-3)Gal(b1-4)GlcNAc(b1-2)Man(a1-6)]GalNAc
# Method in brief: as §1
# [16] = target: Neu5Ac(a2-6)Gal(b1-4)GlcNAc(b1-3)Gal(b1-4)GlcNAc(b1-3)Gal(b1-4)GlcNAc
# Method in brief: as §1
# [17] = target: Neu5Ac(a2-6)Gal(b1-4)GlcNAc(b1-3)Gal(b1-4)GlcNAc(b1-3)Gal(b1-4)GlcNAc(b1-2)Man(a1-3)[Neu5Ac(a2-6)Gal(b1-4)GlcNAc(b1-3)Gal(b1-4)GlcNAc(b1-3)Gal(b1-4)GlcNAc(b1-2)Man(a1-6)]GalNAc
# Method in brief: as §1
# [18] = target: Neu5Ac(a2-6)Gal(b1-4)GlcNAc(b1-3)Gal(b1-4)GlcNAc(b1-3)GalNAc
# Method in brief: as §1
# [19] = target: Neu5Ac(a2-6)Gal(b1-4)GlcNAc(b1-3)Gal(b1-4)GlcNAc(b1-3)[Neu5Ac(a2-6)Gal(b1-4)GlcNAc(b1-3)Gal(b1-4)GlcNAc(b1-6)]GalNAc
# Method in brief: as §1
# [20] = target: Neu5Ac(a2-6)Gal(b1-4)GlcNAc(b1-3)Gal(b1-4)GlcNAc(b1-6)[Gal(b1-3)]GalNAc
# Method in brief: as §1
# [21] = target: Neu5Ac(a2-6)Gal(b1-4)GlcNAc(b1-3)Gal(b1-4)[Fuc(a1-3)]GlcNAc(b1-3)Gal(b1-4)[Fuc(a1-3)]GlcNAc
# Method in brief: as §1
# [22] = target: Neu5Ac(a2-6)Gal(b1-4)GlcNAc(b1-3)GalNAc
# Method in brief: as §1
# [23] = target: Neu5Ac(a2-6)Gal(b1-4)GlcNAc(b1-3)[Neu5Ac(a2-6)Gal(b1-4)GlcNAc(b1-6)]GalNAc
# Method in brief: as §1
# [24] = target: Neu5Ac(a2-6)Gal(b1-4)GlcNAc(b1-6)GalNAc
# Method in brief: as §1
# [25] = target: Neu5Ac(a2-6)Gal(b1-4)GlcNAc(b1-6)[Gal(b1-3)GlcNAc(b1-3)]Gal(b1-4)Glc
# Method in brief: as §1
# [26] = target: Neu5Ac(a2-6)Gal(b1-4)GlcNAc(b1-6)[Gal(b1-3)]GalNAc
# Method in brief: as §1
# [27] = target: Neu5Ac(a2-6)Gal(b1-4)GlcNAc6S
# Method in brief: as §1
# [28] = target: Neu5Ac(a2-6)GalNAc
# Method in brief: as §1
# [29] = target: Neu5Ac(a2-6)GalNAc(b1-4)GlcNAc
# Method in brief: as §1
# [30] = target: Neu5Ac(a2-6)GalNAc(b1-4)GlcNAc6S
# Method in brief: as §1
# [31] = target: Neu5Ac(a2-6)GlcNAc(b1-4)GlcNAc
# Method in brief: as §1
binder,measurement,setting,value
B1,glycan array binding signal (z-score),[1],-0.085
same,glycan array binding signal (z-score),[2],-0.082
same,glycan array binding signal (z-score),[3],-0.077
same,glycan array binding signal (z-score),[4],-0.077
same,glycan array binding signal (z-score),[5],-0.074
same,glycan array binding signal (z-score),[6],-0.087
same,glycan array binding signal (z-score),[7],-0.071
same,glycan array binding signal (z-score),[8],-0.083
same,glycan array binding signal (z-score),[9],-0.078
same,glycan array binding signal (z-score),[10],-0.078
same,glycan array binding signal (z-score),[11],-0.082
same,glycan array binding signal (z-score),[12],-0.075
same,glycan array binding signal (z-score),[13],-0.086
same,glycan array binding signal (z-score),[14],-0.081
same,glycan array binding signal (z-score),[15],-0.06
same,glycan array binding signal (z-score),[16],-0.083
same,glycan array binding signal (z-score),[17],-0.027
same,glycan array binding signal (z-score),[18],-0.084
same,glycan array binding signal (z-score),[19],-0.021
same,glycan array binding signal (z-score),[20],-0.072
same,glycan array binding signal (z-score),[21],-0.08
same,glycan array binding signal (z-score),[22],-0.081
same,glycan array binding signal (z-score),[23],-0.084
same,glycan array binding signal (z-score),[24],-0.077
same,glycan array binding signal (z-score),[25],-0.084
same,glycan array binding signal (z-score),[26],-0.077
same,glycan array binding signal (z-score),[27],-0.08
same,glycan array binding signal (z-score),[28],-0.079
same,glycan array binding signal (z-score),[29],-0.087
same,glycan array binding signal (z-score),[30],-0.067
same,glycan array binding signal (z-score),[31],-0.085
